# Some of the results follow.
# T1: UNK ZnF1-3 (human, UniProt Q9C0B0 31-174)
# T1 sequence: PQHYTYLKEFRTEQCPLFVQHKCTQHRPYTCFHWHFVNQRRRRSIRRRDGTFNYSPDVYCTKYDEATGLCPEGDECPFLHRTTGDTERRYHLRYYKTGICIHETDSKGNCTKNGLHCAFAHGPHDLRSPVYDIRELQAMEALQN
# B1: chr15:39702511:39702512:-_ENSMUSG00000022305_ENSMUST00000022916|mus_hu|FALSE|FALSE (ssRNA)
# RNA: GGGAGUUCUACAGUCCGACGAUCCUUAAUUUUCUUUUGAGAGUGUAGCAUGAUCCCCCCCAGGAAUAAAAUAUAUUGAAAAAAUCACUCUUACAACAAUGUAUUUUUUAAAUACAACAAAUAAAUAUGAAACCAGCAAAGCAACAACAGAGGAUUGAGCAUCA
# B2: 135086505_135086625_324_3pUTR_ENSMUSG00000028165_ENSMUST00000029815|mouse|control|control (ssRNA)
# RNA: GGGAGUUCUACAGUCCGACGAUCCUGUCCUCGGCUCGGCUGCGGGGGUGGGCGUCCGCUUUCGACCCUUGACGUCUGCGGAAGCGGGUGGCCGGGUUUUGAAAGAAACCCAAAGUUACCCACUGAUUGUUUUUUCCUCCGCAACAACAGAGGAUUGAGCAUCA
# B3: 21608975_21614024_810_CDS_ENSG00000121350_ENST00000240651|human|control|control (ssRNA)
# RNA: GGGAGUUCUACAGUCCGACGAUCAAACUCAUCCUGAAGGUAGAUUUUCUUUACUUCACACAUAGUUUCAAGGUGAAUCUUAUGAGAAAACUCUUUUGUUCCUUUAAGAUUCAAGCCUUCAUGCCAAUCUGGUCCCAAUGCACUCAACAGAGGAUUGAGCAUCA
# B4: chr6:99998177:99998178:-_ENSG00000112237_ENST00000369220|hu_mus|motif|central (ssRNA)
# RNA: GGGAGUUCUACAGUCCGACGAUCAAGGGGAAGCAGCACGUCUUCCUGGCCCAUGUCCUGCACAUACUGGAGCAAAGGUCGGUAAGGAUGAUACACUAUCAAGCAACAGUCCAUUAAUUCUAAGAGGUAAAAUUCACAUUCUAGCAACAGAGGAUUGAGCAUCA
# B5: chr9:80412558:80412559:-_ENSG00000156052_ENST00000286548|hu_mus|motif|central (ssRNA)
# RNA: GGGAGUUCUACAGUCCGACGAUCAGUGGGGACUCGAACUCUAAGCACGUCUUGUUGUGUAGGCAGAUAGGAAGGGUCGGCGGCACGGUCCAAGUCAUUCAGAUAGUAUUUGGUAGAGUCAGAUAACUGAUAUUCCCGUCGUCUCAACAGAGGAUUGAGCAUCA
# B6: chr20:44444512:44444513:+_ENSG00000175063_ENST00000356455|hu_hu|FALSE|FALSE (ssRNA)
# RNA: GGGAGUUCUACAGUCCGACGAUCCAGGUACUUCUUAAAAGCUGUGGGGUUUUUCCAGAGCUCGGCAGCAUGUGUGUUCAAGGGACUAUCAAUGUUGGGUUCUCCUAGAAGGCUCUGGAUGGAGAGCAGAAUGGUCCUGACAUCCAACAGAGGAUUGAGCAUCA
# B7: 14486526_14487897_2526_CDS_ENSG00000129083_ENST00000439561|human|control|control (ssRNA)
# RNA: GGGAGUUCUACAGUCCGACGAUCAUGAGGAGCAAGAGUCAAAGGAGACGGCUUUUCCACAAGUUUCAGAUCCCCUAGUGUAGCUAGUUCUAAUGUGCAAUUCUGCAAAGUAUCACUGGUUUGGUUCACAACAAGUACAUCCAGCAACAGAGGAUUGAGCAUCA
# B8: chr4:65274301:65274302:+_ENSMUSG00000051675_ENSMUST00000050850|mus_mus|motif|central (ssRNA)
# RNA: GGGAGUUCUACAGUCCGACGAUCGUGCAGCAGCUUGGGUCGCAGCUGCUCUUCAGUGAAGGACUCCAUGCAGAUGGGACAUUCGGGCACUUCCCGGAGGGCAUCCAGGUUCAGGUGAGAAGCUGCUGCAGCCGCAGCCAUUGCCAACAGAGGAUUGAGCAUCA
# B9: chr3:105756983:105756984:-_ENSMUSG00000000563_ENSMUST00000118209|mus_mus|FALSE|FALSE (ssRNA)
# RNA: GGGAGUUCUACAGUCCGACGAUCAAUAAAUUCUCCAAAAGAGGCGCCAUAUUUCUUAAUCACAUAGACUAUCAACCCUACUACUGAUAUGGUAGAGAAGGUCUCUGGGGUAAUCACAUAUAUUUCUUUGGAUAGAAAAUACAACAACAGAGGAUUGAGCAUCA
# B10: chr19:29096225:29096226:-_ENSMUSG00000024782_ENSMUST00000025696|mus_mus|FALSE|FALSE (ssRNA)
# RNA: GGGAGUUCUACAGUCCGACGAUCCUCAGGCUGGUUGGAUCCCACUGCUGUAAGUAGAAGAGGAGGCUGCUUAGAUGGUACCAGAAGAAUUGCUUCCCUUUAAAUUAGGGUGGGAAGUGGUAGCACACAGUGAUCCCAGCACUUCAACAGAGGAUUGAGCAUCA
# B11: chr8:74858975:74858976:-_ENSG00000154582_ENST00000284811|hu_mus|hu_hu_hu_mus_True|8_8 (ssRNA)
# RNA: GGGAGUUCUACAGUCCGACGAUCGACCUUGUAGGUAAAAUACAUGCACACUUUUGAUAGCACAUGUGAGGGGAUCUCUCUAAAAUUGACCUCGUUGGUUUCAUUCUCAGCAAACUGACCUGGACCACUCAACAUGGCCUUUAUCAACAGAGGAUUGAGCAUCA
# B12: 93402855_93408775_669_CDS_ENSG00000166004_ENST00000325212|human|control|control (ssRNA)
# RNA: GGGAGUUCUACAGUCCGACGAUCAUUGGUUUUGACUGCAGAAAUUCUUUUUACUUCGAUGUUCUCAAAAAGAGUUGGAGGAGGAGGUGGCAGACUUGUAAUUUUGGCUGAUCUCUCUUUUUCCACAAGCAGUGCUUCCUUUCGCAACAGAGGAUUGAGCAUCA
# B13: chr6:133138135:133138136:+_ENSG00000112306_ENST00000230050|hu_hu|motif|central (ssRNA)
# RNA: GGGAGUUCUACAGUCCGACGAUCAACCACUUUACGGGGUUUCCCCUCUCUGUCAAUUUUACAAAGGCCUACCCAUUCUCCGGGUUUCUUGUUGUCAUCAACCUUAAUUAGGUUGAUUUGGUGUUCAGCACAAAGGGCCUCCACCAACAGAGGAUUGAGCAUCA
# B14: chr8:95500983:95500984:-_ENSG00000164944_ENST00000437199|hu_hu|hu_hu_hu_mus_True|48_108 (ssRNA)
# RNA: GGGAGUUCUACAGUCCGACGAUCAGAAGGAUUUUUACGAGUAAAGGACCGUACAUGACGGCCUCUACCACUGCCUCCACUAACAAAACUUUCCUCUGAGCCUCCACUGCCGCUAUUUGUACUAGCCCAGGACGGUCCCAGGCCCAACAGAGGAUUGAGCAUCA
# B15: chr11:18503389:18503390:-_ENSG00000074319_ENST00000251968|hu_hu|hu_hu_hu_mus_True|18_18 (ssRNA)
# RNA: GGGAGUUCUACAGUCCGACGAUCAUUUUCCAUUUUCUCCAGAGCAGAACUUAGUUCUUCAUCCUUCUUUUUCAAAAGUUCUAUGUUUUUAUCAACUUCAGCUACUUCUUGAUCUAAACGGGUAACCAUCUCUUCCAGUUUCUGCAACAGAGGAUUGAGCAUCA
# B16: chr6:41757443:41757444:+_ENSG00000214736_ENST00000398881|hu_mus|hu_hu_hu_mus_False|1_8 (ssRNA)
# RNA: GGGAGUUCUACAGUCCGACGAUCGAACCGUGCAGAGGCAACAUCUCAGCCGACACUGGGGGAUGGGGGGGCAGUGGGGGGGGGUUCAGGCAAGGAGAGGGAGUCAACUUCAGCUGCCACUCAGGUAGCUGCCAUCAGGGCACACAACAGAGGAUUGAGCAUCA
# B17: chr7:75932113:75932114:+_ENSG00000106211_ENST00000248553|hu_hu|hu_hu_hu_mus_False|38_58 (ssRNA)
# RNA: GGGAGUUCUACAGUCCGACGAUCCUGCGACCACUCAUCGGGCAACCGGGGCACCCCGAAAGCUUGAUCGAAGAGGCGGCUAUGCGGAGGGUACCAGCGGAAGGGGUGUUCCCAGCUCGGGCUCCGCAGCAGCGAGAAGGGCACCAACAGAGGAUUGAGCAUCA
# B18: chr11:43702452:43702453:+_ENSG00000149084_ENST00000278353|hu_hu|FALSE|FALSE (ssRNA)
# RNA: GGGAGUUCUACAGUCCGACGAUCCCCCGCCUCAUUCCCCACUCCCCAGACCCGGAGGGCCGUGAAGAGCGAGUACGAAAUACGCAGGGCUAGGUAGGCCACGGUGCCCGCGCCGACCCAGUACAGGAAGCCGGCGGCGGGGAGCAACAGAGGAUUGAGCAUCA
# B19: chr10:33214929:33214930:-_ENSG00000150093_ENST00000302278|hu_hu|hu_hu_hu_mus_True|28_98 (ssRNA)
# RNA: GGGAGUUCUACAGUCCGACGAUCAACAAGUUCAUUGAAUACUUCUCCUCUGUCAGUAAGACUAAGCACAUUUUUGUAGCUAAAUGGGCUGGUGCAGUUUUGUUCACUUGUGCAAGGAUUUCUUAGCUUUGCUGGGGUUGUGCUCAACAGAGGAUUGAGCAUCA
# B20: chr7:116084223:116084224:+_ENSMUSG00000031029_ENSMUST00000033342|mus_hu|motif|central (ssRNA)
# RNA: GGGAGUUCUACAGUCCGACGAUCUGAUGCCCCUCCUACUUGCUGCAAGUCACUUGAGAGUCCAAUCACUCUGUUGGGGCGGAAGCAGGUCUUCAUGAUCAGGUCAACUCCGAUGCGUUCAGUGUCGUAGUACGCGUAUUUCACCAACAGAGGAUUGAGCAUCA
# B21: chr3:10015032:10015033:+_ENSMUSG00000027533_ENSMUST00000029046|mus_mus|mus_mus_mus_hu_True|18_88 (ssRNA)
# RNA: GGGAGUUCUACAGUCCGACGAUCGUUUUUACCAUCACAAGUGAUGAUACAGUCUGGCUUGGCCAUUGCGCCCAUUUUUCGCAAAGCUAUUCCCACUCCUAGCUCCUUCAUGUAUUCCUCAAAGCCGUUGCUGUCCACCAGGCGCAACAGAGGAUUGAGCAUCA
# B22: chr5:128440902:128440903:+_ENSG00000066583_ENST00000173527|hu_mus|hu_hu_hu_mus_True|1_1 (ssRNA)
# RNA: GGGAGUUCUACAGUCCGACGAUCUUGAACGGUGCUGCCAAGUCCUUUGGGGUAUUGUUCCGUUAUGAUAACUGGAAUCCCUAAGAUCCGAGCUCCUUGCAACAGUCUCUGUCCCACACUAAUGAUGUCCCCAAAGUACUUGAUCAACAGAGGAUUGAGCAUCA
# Molecular target: T1, UNK ZnF1-3
# Experiment: nsRBNS (natural sequence RNA bind-n-seq); RBNS binding buffer (assumed for nsRBNS): 25 mM Tris pH 7.5, 150 mM KCl, 3 mM MgCl2, 0.01% Triton X-100, 500 ug/ml BSA, 20 U/ml SUPERase-In, 4 C; UNK is unkempt and MSI1 is Musashi-1; names of the RNAs are library labels; protein concentration not given here; high values mean tight binding
row,Binder,binding signal
1,B1,3.05 enrichment R
2,B2,0.51 enrichment R
3,B3,0.678 enrichment R
4,B4,0.703 enrichment R
5,B5,0.768 enrichment R
6,B6,0.828 enrichment R
7,B7,1.44 enrichment R
8,B8,0.533 enrichment R
9,B9,0.954 enrichment R
10,B10,1.51 enrichment R
11,B11,0.619 enrichment R
12,B12,0.732 enrichment R
13,B13,0.505 enrichment R
14,B14,0.989 enrichment R
15,B15,0.506 enrichment R
16,B16,1.67 enrichment R
17,B17,1.29 enrichment R
18,B18,0.579 enrichment R
19,B19,0.661 enrichment R
20,B20,0.706 enrichment R
21,B21,0.753 enrichment R
22,B22,0.566 enrichment R
